{
  "source": "patent US10913888B2",
  "about": "“Nanotube mediation of degradative chemicals for oil-field application” (MOLECULAR REBAR DESIGN, LLC, priority 2016, dated 2021)",
  "test": "Niacin association with carbon nanotubes by UV-vis absorption of the supernatant",
  "data": [
    {"smiles": "O=C(O)c1cccnc1", "note": "[niacin]", "values": [
      {"measurement": "time after which amount of niacin in solution stabilizes", "setting": "Example 8, hourly aliquots", "result": 6, "unit": "h"},
      {"measurement": "niacin associated with each gram of carbon nanotubes", "setting": "Example 8, no PVOH, 0.231 grams niacin/gram of carbon nanotube in 25 ml water, 20 hours after mixing", "result": 0.0746, "unit": "g niacin/g CNT"},
      {"measurement": "total amount of niacin absorbed", "setting": "Example 9, with PVOH, 0.0535 g nanotubes, 0.0139 g niacin", "result": 0.003, "unit": "grams"}
    ]}
  ]
}
